The results in this text go back to PubChem BioAssay AID360 (National Center for Advancing Translational Sciences (NCATS), 2006).

In all, about 48,000 compounds went through this assay and about 550 (1.1%) were called active. About 4% were inconclusive and are not listed. No stated cut-off is given here; in the data, active means potency below about 15 µM; inconclusive means mostly about 16 µM to 33 µM; inactive means weaker than that. The list shows a part of the results. Where only a bound is given, the exact number is not on record here.
Potency means the concentration at half of the fitted maximal effect.

The test deals with Lysosomal acid glucosylceramidase (Homo sapiens) (UniProt P04062). The test can be described thus: Glucocerebrosidase.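 Further: the screen sought inhibitors.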 Conditions: purified enzyme, resorufin glucoside fluorescence (screen aimed at inhibitors), 20 min. The procedure, abridged: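 Wild-type enzyme at 0.2 nM final in 50mM citric acid/KH2PO4, 10mM sodium taurocholate, 0.01% tween-20, pH 5.9, with resorufin beta-D-glucopyranoside at 30 uM final. Compounds titrated, 20 min at RT, red fluorescence read; AC50 from titration.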
UniProt P04062, sequence (P04062 whole entry, looked up): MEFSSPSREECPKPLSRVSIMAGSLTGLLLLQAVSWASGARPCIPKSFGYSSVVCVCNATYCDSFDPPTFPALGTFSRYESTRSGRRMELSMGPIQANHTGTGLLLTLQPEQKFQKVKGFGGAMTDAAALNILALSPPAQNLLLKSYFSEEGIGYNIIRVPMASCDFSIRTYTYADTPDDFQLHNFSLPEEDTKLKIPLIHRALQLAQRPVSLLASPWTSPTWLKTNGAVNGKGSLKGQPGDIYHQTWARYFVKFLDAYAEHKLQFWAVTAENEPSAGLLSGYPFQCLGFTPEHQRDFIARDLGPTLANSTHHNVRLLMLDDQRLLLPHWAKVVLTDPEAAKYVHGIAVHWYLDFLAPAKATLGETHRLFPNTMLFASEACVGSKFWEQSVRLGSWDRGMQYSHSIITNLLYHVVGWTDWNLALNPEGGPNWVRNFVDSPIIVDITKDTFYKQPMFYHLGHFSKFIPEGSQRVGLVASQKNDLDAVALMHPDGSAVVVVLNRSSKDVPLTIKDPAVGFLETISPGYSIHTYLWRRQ
Turning to `COC(=O)c1ccccc1NC(=O)CN1CCC(C(=O)c2ccc3c(c2)OCCO3)CC1`, the Potency is inactive: > 76.9 µM. For the molecule `CC(C)C(NC(=O)C1CCCCC1)C(=O)Nc1ccc2c(c1)OCCO2` (stereo not drawn), the Potency is inactive: > 76.9 µM.

Take `N#Cc1nc(-c2ccc(OCc3ccc(Cl)cc3)cc2)oc1N1CCOCC1`: the Potency is inactive: > 76.9 µM. In the case of `Cn1c(=O)c(NCCO)c2c3c(cccc31)C(=O)c1ccccc1-2` it was inactive: > 76.9 µM; in that of `COCCn1nnnc1C(C(C)C)N(Cc1cccnc1)Cc1ccccc1Cl` (stereo not drawn), inactive: > 76.9 µM; in that of `CCc1cc2c(NCC(=O)O)ncnc2s1`, inactive: > 76.9 µM. With `Cc1cc(=O)oc(C)c1C(=O)NCCCN1CCN(c2ccccc2F)CC1` the figure was inactive: > 76.9 µM; with `CCOC(=O)C1C(c2ccc(C)o2)NC(=O)NC1(O)C(F)(F)F` (stereo not drawn), inactive: > 76.9 µM; with `CCOc1ccc(NC(=O)c2cc3n(n2)C(C(F)(F)F)CC(c2ccco2)N3)cc1` (stereo not drawn), inactive: > 76.9 µM. With `Cc1cccc(NC(=O)CS(=O)(=O)c2cn(C)c3ccccc23)c1C` the figure was inactive: > 76.9 µM. Consider `O=C(CN1CCC(n2nnc3cc(F)ccc32)CC1)N1CCc2ccccc2C1`, for which the Potency is inactive: > 76.9 µM. Turning to `O=S(=O)(NCCCCCNS(=O)(=O)c1ccc(F)cc1)c1ccc(F)cc1`, the Potency was inactive: > 76.9 µM. In the case of `CCn1c(N)c(C(=O)NCc2ccco2)sc1=S` it was inactive: > 76.9 µM; in that of `O=C(CN1C2=NCCN2c2ccccc21)c1ccco1`, inactive: > 76.9 µM. Take `CCOc1ccc(C(C)(N)C(=O)O)cc1` (stereo not drawn): the Potency is inactive: > 76.9 µM. In the case of `C=CCn1c(N)c(C(=O)OCCC)c2nc3ccccc3nc21` it was inactive: > 76.9 µM.

On to `CCn1c(COc2ccccc2C)nnc1SCC(=O)Nc1ccc2c(c1)OCCO2`, for which the Potency was inactive: > 76.9 µM. In the case of `c1cc2c(cc1C1CCCN1)OCCCO2` (stereo not drawn) it was inactive: > 76.9 µM; in that of `Cc1ccc2oc(-c3ccccc3C(=O)O)cc(=O)c2c1`, inactive: > 76.9 µM. In the case of `COC(=O)C(C(=O)Nc1ccc(OC)cc1)C1CCCCCC1` (stereo not drawn) it was inactive: > 76.9 µM; in that of `Cc1cc(N2CCCC(C(=O)Nc3ccc4c(c3)CCC4)C2)n2ncnc2n1` (stereo not drawn), inactive: > 76.9 µM.

Turning to `O=C(O)[C@@H]1CCCC[C@@H]1C(=O)N1CCc2ccccc2C1CN1C(=O)c2ccccc2C1=O` (stereo partly drawn), the Potency was inactive: > 76.9 µM.

As to `CCOC(=O)C(C(C)=O)C(c1ccc(OC)cc1)C(C(C)=O)C(=O)OCC` (stereo not drawn), the Potency was inactive: > 76.9 µM.

`CCOc1ccc(C(=O)CN2CCN(S(=O)(=O)c3ccc(F)cc3)CC2)cc1`: the Potency was inactive: > 76.9 µM. With `CCSc1nnc(Cc2cc(=O)[nH]c(=O)[nH]2)n1-c1cc(C)ccc1C` the figure was inactive: > 76.9 µM; with `CN(C)CCN1C(=O)c2oc3ccccc3c(=O)c2C1c1ccccc1` (stereo not drawn), inactive: > 76.9 µM; with `COc1ccc(-c2noc(CCC(=O)NC3CCCCC3)n2)cc1OC`, inactive: > 76.9 µM. In the case of `CCCCC(=O)N=c1sc2cc(S(C)(=O)=O)ccc2n1C` it was inactive: > 76.9 µM; in that of `Cc1ccc(C)c(C(=O)NCCN(C)C)c1`, inactive: > 76.9 µM; in that of `O=C(NC1CCCCC1NC(=O)c1cccs1)c1cccs1` (stereo not drawn), inactive: > 76.9 µM. With `Cc1sc2c(=O)n3c(nc2c1C(=O)NCCCN1CCOCC1)CCCCC3` the figure was inactive: > 76.9 µM. As to `Cc1ccc(CNC(=O)CN2CCC(C(N)=O)CC2)cc1`, the Potency was inactive: > 76.9 µM. With `O=C(NCC(c1cccnc1)N1CCN(c2ccc(F)cc2)CC1)c1ccc2c(c1)OCO2` (stereo not drawn) the figure was inactive: > 76.9 µM; with `CSCCC(NC(=O)CCN1C(=O)c2ccccc2C1=O)C(=O)O` (stereo not drawn), inactive: > 76.9 µM; with `CC(C)CCC(C(=O)O)C(C)CC(=O)NC1CCCCC1` (stereo not drawn), inactive: > 76.9 µM. In the case of `CCc1ccccc1OCc1nnc(N)s1` it was inactive: > 76.9 µM. In the case of `Cc1ccc(S(=O)(=O)NC(CC(=O)N2CCOCC2)c2ccco2)cc1` (stereo not drawn) it was inactive: > 76.9 µM; in that of `Cc1ccc(N2CCCn3c2nc2c3c(=O)n(CCN3CCOCC3)c(=O)n2C)cc1`, inactive: > 76.9 µM; in that of `CCOC(=O)c1ccoc1CSCC(=O)N1CCN(S(=O)(=O)c2ccc(C)cc2)CC1`, inactive: > 76.9 µM. With `Cc1cc2c(c(=O)n1Cc1cccnc1)C(Cc1ccccc1)C(C#N)=C(N)O2` (stereo not drawn), the Potency is inactive: > 76.9 µM. With `Cc1cc(=O)n2nc(N3CCCC3C(=O)NCCCN3CC(C)CC(C)C3)sc2n1` (stereo not drawn) the figure was inactive: > 76.9 µM. With `CCOC(=O)COc1ccc(-c2nnc(-c3ccccc3)o2)cc1` the figure was inactive: > 76.9 µM; with `O=S(=O)(c1ccc(S(=O)(=O)N(Cc2cccs2)CC2CCCO2)cc1)N1CCCCC1` (stereo not drawn), inactive: > 76.9 µM; with `COc1cccc(N(C(=O)CNC(=O)c2ccco2)C(C(=O)NC2CCCCC2)c2ccncc2)c1` (stereo not drawn), inactive: > 76.9 µM. In the case of `CCOc1cc(C#N)c(NC(=O)Cn2nnc3ccccc32)cc1OCC` it was inactive: > 76.9 µM; in that of `O=C(NCc1ccc2c(c1)OCO2)c1cccc(N2CCCC2=O)c1`, inactive: > 76.9 µM.

For the molecule `Nc1nnc(-c2cc3ccccc3oc2=O)s1`, the Potency is inactive: > 76.9 µM. In the case of `NC(=O)CSc1nnc(-c2ccc(O)cc2)n1Cc1ccco1` it was inactive: > 76.9 µM; in that of `O=C(CSc1nnc(CNC(=O)c2cccs2)o1)NC1CCCC1`, inactive: > 76.9 µM. With `O=C(c1ccccc1)C1CCc2occc2C1=O` (stereo not drawn) the figure was inactive: > 76.9 µM.

Take `CC(C)(C)n1nnnc1C(c1ccc(C#N)cc1)N1CCCC2(CCCCC2)C1` (stereo not drawn): the Potency is inactive: > 76.9 µM. As to `Cc1ccc2[nH]c3c(c2c1)CCc1cn[nH]c1-3`, the Potency is inactive: > 76.9 µM. In the case of `COc1ccc(OCC2CNC(=O)O2)cc1` (stereo not drawn) it was inactive: > 76.9 µM; in that of `COc1ccc(-c2nnc(-c3ccc(N(C)C)cc3)o2)cc1`, inactive: > 76.9 µM. Turning to `Cc1ccc(Cl)cc1N1CCN(C(=O)CCC(=O)O)CC1`, the Potency is inactive: > 76.9 µM.

With `Cc1cccc(-n2c(CCCN3C(=O)c4ccccc4C3=O)nc3ccccc3c2=O)n1`, the Potency was inactive: > 76.9 µM.

In the case of `CC1COC(c2cccn2Cc2ccccc2Cl)=N1` (stereo not drawn), the Potency was inactive: > 76.9 µM. In the case of `COc1ccc2c(CC(=O)N3CCN(S(=O)(=O)c4cccs4)CC3)coc2c1` it was inactive: > 76.9 µM.
